Assay [1] addresses FLAG-tagged SIM2s (single-minded 2 s) in HC11-Sim2s cells (UniProt Q14190). The experiment in a line: co-IP; FLAG-conjugated magnetic beads, RIPA lysates of HC11 cells at 24 h of differentiation incubated overnight, five washes in TBS, western blot.
Assay [2] addresses FLAG-tagged Sim2s-pATMΔ in HC11 cells (UniProt Q14190). The description is as above.
In assay [3] the target is FLAG-tagged SIM2s in SUM159-Sim2s cells (UniProt Q14190). The experiment in a line: co-IP; co-immunoprecipitation of HA-PRKN and FLAG in control, Sim2s or Sim2s-pATMΔ SUM159 cells.
Assay [4] deals with FLAG-tagged Sim2s-pATMΔ in SUM159 cells (UniProt Q14190). The description is as above.
Assay [5] deals with FLAG-tagged SIM2s in SUM159-Sim2s cells (UniProt Q14190). In words: proximity ligation; Duolink In Situ PLA in fixed, permeabilised SUM159 pLPCX SIM2s-FLAG cells; mouse and rabbit primary antibodies; puncta per cell.

Chains of the proteins cited; added tags and fusions are not shown. Lines headed by an entry give the natural chain unless they say otherwise; changes in a name come on top. A line that says so, or that is headed by a name, gives the form on record, which may keep a tag or linker.
FLAG-tagged SIM2s in SUM159-Sim2s cells (Q14190, form named): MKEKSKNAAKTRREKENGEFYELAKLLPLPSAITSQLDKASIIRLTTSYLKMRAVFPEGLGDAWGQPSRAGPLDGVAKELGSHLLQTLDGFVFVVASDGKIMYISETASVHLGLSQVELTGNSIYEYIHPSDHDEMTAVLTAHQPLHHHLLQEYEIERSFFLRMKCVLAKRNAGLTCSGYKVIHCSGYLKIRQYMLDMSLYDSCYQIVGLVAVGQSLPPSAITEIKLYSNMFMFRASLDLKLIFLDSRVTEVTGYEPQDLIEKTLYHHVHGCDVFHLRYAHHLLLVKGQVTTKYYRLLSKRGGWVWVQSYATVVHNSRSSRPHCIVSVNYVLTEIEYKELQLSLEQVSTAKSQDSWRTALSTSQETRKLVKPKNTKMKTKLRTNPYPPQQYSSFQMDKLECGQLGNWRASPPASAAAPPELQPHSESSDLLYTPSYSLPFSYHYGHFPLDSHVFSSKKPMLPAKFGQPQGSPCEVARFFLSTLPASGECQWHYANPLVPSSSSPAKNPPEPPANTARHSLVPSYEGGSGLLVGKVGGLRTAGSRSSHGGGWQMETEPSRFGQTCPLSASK
FLAG-tagged Sim2s-pATMΔ in SUM159 cells (Q14190, form named): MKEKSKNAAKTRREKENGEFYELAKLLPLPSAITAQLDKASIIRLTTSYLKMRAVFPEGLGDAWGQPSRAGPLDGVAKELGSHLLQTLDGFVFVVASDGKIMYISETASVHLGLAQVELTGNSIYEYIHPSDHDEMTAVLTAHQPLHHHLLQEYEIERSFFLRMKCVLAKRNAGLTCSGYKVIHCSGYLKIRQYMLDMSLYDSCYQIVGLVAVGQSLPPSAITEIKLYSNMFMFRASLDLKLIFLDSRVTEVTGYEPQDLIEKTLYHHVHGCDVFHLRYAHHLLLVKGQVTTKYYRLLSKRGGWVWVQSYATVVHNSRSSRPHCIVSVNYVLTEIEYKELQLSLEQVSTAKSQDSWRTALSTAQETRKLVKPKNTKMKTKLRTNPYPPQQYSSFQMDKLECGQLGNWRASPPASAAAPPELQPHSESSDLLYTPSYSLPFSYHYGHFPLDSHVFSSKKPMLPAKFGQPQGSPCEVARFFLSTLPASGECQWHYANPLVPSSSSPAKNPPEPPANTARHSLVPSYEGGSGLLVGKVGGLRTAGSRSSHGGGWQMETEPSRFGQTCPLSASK
UniProt Q62388: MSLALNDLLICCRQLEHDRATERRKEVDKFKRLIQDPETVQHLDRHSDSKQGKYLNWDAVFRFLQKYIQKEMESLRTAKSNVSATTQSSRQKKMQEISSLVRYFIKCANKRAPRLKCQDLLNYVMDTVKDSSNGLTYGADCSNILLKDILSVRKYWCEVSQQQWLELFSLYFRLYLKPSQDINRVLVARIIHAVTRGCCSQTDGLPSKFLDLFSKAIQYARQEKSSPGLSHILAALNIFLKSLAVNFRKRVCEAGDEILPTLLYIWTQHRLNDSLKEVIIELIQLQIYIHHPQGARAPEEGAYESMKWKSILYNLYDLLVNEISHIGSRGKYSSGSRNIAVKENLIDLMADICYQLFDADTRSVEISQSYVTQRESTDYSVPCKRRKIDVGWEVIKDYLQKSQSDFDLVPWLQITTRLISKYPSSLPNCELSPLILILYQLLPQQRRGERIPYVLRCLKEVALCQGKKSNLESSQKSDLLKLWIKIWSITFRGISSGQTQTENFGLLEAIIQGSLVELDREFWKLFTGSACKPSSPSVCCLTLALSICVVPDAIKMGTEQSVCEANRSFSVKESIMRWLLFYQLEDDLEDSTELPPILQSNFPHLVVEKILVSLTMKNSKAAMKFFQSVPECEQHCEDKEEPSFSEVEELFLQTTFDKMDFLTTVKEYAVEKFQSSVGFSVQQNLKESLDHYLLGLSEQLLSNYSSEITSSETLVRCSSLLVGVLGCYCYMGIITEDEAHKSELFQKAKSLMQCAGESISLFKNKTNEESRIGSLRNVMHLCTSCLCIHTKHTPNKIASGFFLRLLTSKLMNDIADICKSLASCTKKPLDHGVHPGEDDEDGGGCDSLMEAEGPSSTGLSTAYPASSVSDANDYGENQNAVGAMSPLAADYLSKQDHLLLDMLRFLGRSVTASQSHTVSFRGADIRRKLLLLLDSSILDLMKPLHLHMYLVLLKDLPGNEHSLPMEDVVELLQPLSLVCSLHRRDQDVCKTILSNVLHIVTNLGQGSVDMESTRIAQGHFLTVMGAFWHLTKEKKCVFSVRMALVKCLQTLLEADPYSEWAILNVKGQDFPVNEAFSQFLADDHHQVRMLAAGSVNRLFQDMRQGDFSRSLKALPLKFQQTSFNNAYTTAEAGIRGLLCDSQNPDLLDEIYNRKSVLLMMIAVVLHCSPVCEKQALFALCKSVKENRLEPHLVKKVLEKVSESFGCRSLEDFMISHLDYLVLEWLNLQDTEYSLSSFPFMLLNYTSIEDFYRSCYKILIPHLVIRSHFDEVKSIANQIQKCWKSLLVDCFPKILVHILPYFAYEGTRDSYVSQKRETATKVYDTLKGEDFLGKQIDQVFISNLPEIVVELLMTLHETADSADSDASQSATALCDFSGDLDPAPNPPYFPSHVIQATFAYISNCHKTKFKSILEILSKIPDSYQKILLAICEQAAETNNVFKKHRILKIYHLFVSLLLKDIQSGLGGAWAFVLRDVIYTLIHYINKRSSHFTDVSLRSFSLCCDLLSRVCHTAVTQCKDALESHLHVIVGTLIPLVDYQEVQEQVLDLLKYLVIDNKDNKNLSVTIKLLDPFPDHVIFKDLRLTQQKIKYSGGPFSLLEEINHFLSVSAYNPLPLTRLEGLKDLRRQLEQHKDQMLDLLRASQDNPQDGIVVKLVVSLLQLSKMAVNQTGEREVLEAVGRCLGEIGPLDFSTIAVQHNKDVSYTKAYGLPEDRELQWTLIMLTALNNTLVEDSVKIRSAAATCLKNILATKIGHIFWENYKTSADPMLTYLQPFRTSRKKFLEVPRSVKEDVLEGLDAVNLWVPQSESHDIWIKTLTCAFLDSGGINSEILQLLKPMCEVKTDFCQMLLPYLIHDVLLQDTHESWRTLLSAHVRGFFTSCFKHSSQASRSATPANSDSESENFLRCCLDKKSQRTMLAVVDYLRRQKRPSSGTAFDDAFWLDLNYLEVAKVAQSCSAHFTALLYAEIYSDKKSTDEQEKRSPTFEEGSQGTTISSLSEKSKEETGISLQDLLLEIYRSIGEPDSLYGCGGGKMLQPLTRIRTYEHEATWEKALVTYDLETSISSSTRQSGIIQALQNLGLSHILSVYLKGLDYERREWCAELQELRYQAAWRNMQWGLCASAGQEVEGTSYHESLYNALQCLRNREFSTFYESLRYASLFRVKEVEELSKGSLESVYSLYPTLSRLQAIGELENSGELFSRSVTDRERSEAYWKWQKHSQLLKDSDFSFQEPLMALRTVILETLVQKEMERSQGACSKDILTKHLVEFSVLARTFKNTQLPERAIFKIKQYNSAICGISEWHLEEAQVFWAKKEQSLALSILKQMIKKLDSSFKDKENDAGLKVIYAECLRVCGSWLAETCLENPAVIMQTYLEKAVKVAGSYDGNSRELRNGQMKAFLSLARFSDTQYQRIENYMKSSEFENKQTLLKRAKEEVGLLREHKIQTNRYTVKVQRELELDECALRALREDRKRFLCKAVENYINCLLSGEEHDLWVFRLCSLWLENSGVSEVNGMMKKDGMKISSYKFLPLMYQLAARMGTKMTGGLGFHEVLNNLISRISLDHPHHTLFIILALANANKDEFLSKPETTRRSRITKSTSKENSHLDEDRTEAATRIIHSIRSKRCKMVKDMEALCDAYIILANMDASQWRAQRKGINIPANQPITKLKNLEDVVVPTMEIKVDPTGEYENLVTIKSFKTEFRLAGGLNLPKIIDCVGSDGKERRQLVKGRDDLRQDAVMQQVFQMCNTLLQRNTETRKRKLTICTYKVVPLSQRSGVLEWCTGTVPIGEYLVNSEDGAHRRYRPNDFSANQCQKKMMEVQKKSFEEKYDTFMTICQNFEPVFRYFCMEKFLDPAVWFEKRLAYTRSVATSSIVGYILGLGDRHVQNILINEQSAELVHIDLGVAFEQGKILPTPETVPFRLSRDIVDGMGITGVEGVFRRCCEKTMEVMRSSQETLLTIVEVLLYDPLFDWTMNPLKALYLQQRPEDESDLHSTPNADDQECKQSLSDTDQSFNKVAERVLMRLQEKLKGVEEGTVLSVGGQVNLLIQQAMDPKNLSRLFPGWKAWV
UniProt O60260: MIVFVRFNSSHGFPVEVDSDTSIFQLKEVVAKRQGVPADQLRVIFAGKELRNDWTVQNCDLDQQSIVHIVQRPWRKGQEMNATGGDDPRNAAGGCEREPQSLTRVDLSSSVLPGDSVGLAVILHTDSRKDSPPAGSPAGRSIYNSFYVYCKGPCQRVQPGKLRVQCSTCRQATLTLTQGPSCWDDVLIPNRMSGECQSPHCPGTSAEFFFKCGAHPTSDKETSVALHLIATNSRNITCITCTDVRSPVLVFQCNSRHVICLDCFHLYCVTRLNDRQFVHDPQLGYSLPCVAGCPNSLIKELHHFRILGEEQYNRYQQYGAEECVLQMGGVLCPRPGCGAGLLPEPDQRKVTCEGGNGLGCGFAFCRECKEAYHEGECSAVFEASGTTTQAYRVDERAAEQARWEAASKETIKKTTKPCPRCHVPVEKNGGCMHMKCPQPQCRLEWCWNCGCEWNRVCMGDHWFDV

Data on three substances can be found in paper PMC10244402.

Results are given in words; binding and its absence hold for the method and conditions named. Binding seen in cells or lysates may run through a third protein. Some binding calls cover weakened binding; strength is not graded here.

In the case of “ATM (ataxia telangiectasia mutated) protein kinase (from UniProt Q62388 1-3066) (enzyme)”, the binding entry in assay [1] is on record as “binds”; in assay [2], “no binding”.
“HA-PRKN (parkin RBR E3 ubiquitin protein ligase) (from UniProt O60260 1-465) (enzyme)”: the binding result is on record as “binds” in assay [3] and “no binding” in assay [4].
With “PRKN (parkin RBR E3 ubiquitin protein ligase) in SUM159 cells, proximity ligation assay (from UniProt O60260 1-465) (enzyme)”, in assay [5], the binding entry is “binds”.
